The inconclusive results got no clear call from the source; some entries with a clear call stand among them for comparison. Potencies of inconclusive entries are left out as doubtful fits. The source made the active and inactive calls. Calls follow the shape of the dose curve; as a rule, active = well fitted inhibition curve with a large enough effect; inconclusive = small, poorly fitted or top-dose-only effect; inactive = no such curve, though single readings can be large or run the other way.
What follows are compounds tested against Rap guanine nucleotide exchange factor 3 (Homo sapiens) (UniProt O95398) (assay: Confirmatory qHTS for antagonist of cAMP-regulated guanine nucleotide exchange factor 3 (EPAC1) (AID 1645880; also: nearly all actives have a fitted effect of over 55% in size;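 as to activity, negative = inhibition: plate controls were DMSO only for no effect and full effect of the ATA control for full effect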)). Conditions: EPAC1 Rap1B-BODIPY-GDP exchange, fluorescence; activity, negative = inhibition: at 115 µM (top of the series).
Summary of the method: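 Nucleotide exchange uses 100 nM EPAC1, 250 nM RAP1B-BODIPY-GDP and 50 uM GDP, with compounds in a concentration-titration series. After 5 min at room temperature, fluorescence (480 nm ex/540 nm em) is read every 5 min for 30 min. Data are normalized to control ATA and DMSO.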
Potency is read from the fitted curve at half-maximal effect; tags tell the direction and shape of the fitted curve.

Sequence of UniProt O95398 (O95398 whole entry, looked up): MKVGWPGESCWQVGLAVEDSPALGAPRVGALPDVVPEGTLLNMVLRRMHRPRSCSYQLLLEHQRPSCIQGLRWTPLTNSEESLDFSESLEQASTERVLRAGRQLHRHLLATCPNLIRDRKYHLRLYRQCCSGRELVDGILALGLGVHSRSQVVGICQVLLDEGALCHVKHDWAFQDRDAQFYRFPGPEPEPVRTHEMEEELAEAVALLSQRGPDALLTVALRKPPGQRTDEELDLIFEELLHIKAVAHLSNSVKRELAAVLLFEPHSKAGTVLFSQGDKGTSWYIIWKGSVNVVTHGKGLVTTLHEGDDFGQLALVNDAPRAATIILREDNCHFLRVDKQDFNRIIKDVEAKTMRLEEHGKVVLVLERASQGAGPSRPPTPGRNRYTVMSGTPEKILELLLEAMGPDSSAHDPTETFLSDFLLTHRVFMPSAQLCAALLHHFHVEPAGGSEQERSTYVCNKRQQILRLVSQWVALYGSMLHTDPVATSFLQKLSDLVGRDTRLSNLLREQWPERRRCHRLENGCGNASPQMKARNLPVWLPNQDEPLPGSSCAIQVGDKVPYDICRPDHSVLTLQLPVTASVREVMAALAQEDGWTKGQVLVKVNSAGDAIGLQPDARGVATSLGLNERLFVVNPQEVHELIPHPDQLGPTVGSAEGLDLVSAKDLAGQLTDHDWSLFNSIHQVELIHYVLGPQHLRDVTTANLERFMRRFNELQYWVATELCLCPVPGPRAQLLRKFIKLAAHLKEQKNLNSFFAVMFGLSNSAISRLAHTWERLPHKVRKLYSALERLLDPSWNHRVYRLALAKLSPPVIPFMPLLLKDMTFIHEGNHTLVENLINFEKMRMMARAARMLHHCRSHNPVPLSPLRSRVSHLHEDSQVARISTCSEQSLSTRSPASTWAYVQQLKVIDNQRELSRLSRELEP

Row | Structure (SMILES) | activity, negative = inhibition | Potency
1 | CN1c2ccccc2C(C)(C)C12C=Nc1c(cc(N3CCOCC3)c3ccccc13)O2 (stereo not given) | inactive: -20% | 
2 | CCN1CCN(C2=CC3=CC(=C(C#N)C#N)CCC3CC2)CC1 (stereo not given) | inactive: 297% | 
3 | Cc1ccc2nc(-c3ccccc3)c(Cc3cccc(Cl)c3)n2c1 |  | inconclusive [inhibitor, partial curve, poor fit]
4 | COc1ccc(OC)c(/C=C/c2nc3ccccc3nc2C)c1 | inactive: -3.99% | 
5 | Cc1ccc(S(=O)(=O)/N=C2\C=C(NS(=O)(=O)c3ccccc3)C(=O)c3ccccc32)cc1 |  | active: 26.9 µM
6 | O=[N+]([O-])c1ccc(NS(=O)(=O)c2ccccc2)c(Cl)c1 |  | inconclusive [inhibitor, partial curve]
7 | CC(=O)c1sc2nc(-c3ccco3)ccc2c1N |  | inconclusive [inhibitor, full curve]
8 | CN1c2ccsc2/C(=N/Nc2ccccc2)CS1(=O)=O |  | inconclusive [inhibitor, partial curve]
9 | Cc1cc(N(C)C)c(C)cc1/C=C/c1ccnc2ccccc12 | inactive: 2.01% | 
10 | CC(C)CC(=NNC(=O)c1ccncc1)c1cc(Cl)ccc1O | inactive: -8.95% | 
11 | O=C1c2ccccc2S(=O)(=O)c2cc(N3CCC(C(=O)N4CCCCC4)CC3)ccc21 | inactive: 8.22% | 
12 | CN(C)c1ccc(/C=C/c2ccnc3c(Cl)cccc23)cc1 | inactive: -3.33% | 
13 | Cc1nc2c(C(=O)NCCc3ccc(Cl)cc3)c[nH]n2c(=O)c1Cc1ccccc1F |  | active: 84.9 µM
14 | CCCN(CCC)c1ccc(/C=C/c2ccnc3ccccc23)cc1 | inactive: 24.7% | 
15 | COC(=O)C1=NN(c2ccc(C)cc2)C2(S1)SC(C(C)=O)=C(C)N2c1ccccc1 (stereo not given) | inactive: 95.9% | 
16 | CCCC1C2CN(C(C)C)CC=C2C(C#N)=C(N)C1(C#N)C#N (stereo not given) |  | active: 37.9 µM
17 | O=C(Cc1ccccc1)Nn1c(O)c(/C=C2\C=Nc3ccccc32)sc1=S | inactive: -16.1% | 
18 | CC(C)(C)C1COc2ccccc2N1C(=O)c1ccccc1Cl (stereo not given) | inactive: -21.7% | 
19 | CCOc1cc(/C=C2\CCCc3c2nc2ccccc2c3C(=O)O)ccc1OC | inactive: 63.9% | 
20 | O=c1oc2cc(O)ccc2cc1-c1nc2ccccc2o1 | inactive: 111% | 

Row | Structure (SMILES) | activity, negative = inhibition | Potency
21 | COC(=O)c1sc(S(=O)(=O)N2CCCCC2C)c(C(=O)OC)c1C (stereo not given) | inactive: -35% | 
22 | O=[N+]([O-])c1cc([N+](=O)[O-])c2nonc2c1Nc1ccc(O)cc1 |  | active: 75.7 µM
23 | COc1cccc(C2=NN(C(=O)c3ccco3)C(c3ccco3)C2)c1 (stereo not given) |  | inconclusive [inhibitor, full curve]
24 | COc1ccc(C(=O)N(CCc2ccccc2)Cc2cccs2)c(OC)c1 | inactive: -27% | 
25 | Nc1ncnc2c1nc(Br)n2[C@@H]1O[C@@H]2COP(=O)(O)O[C@H]2[C@H]1O |  | active: 5.36 µM
26 | O=C(NCc1ccc(OC(F)(F)F)cc1)c1cccc2c1C(=O)c1ccc(N3CCCC3)cc1S2(=O)=O |  | inconclusive [inhibitor, partial curve]
27 | CCOC(=O)/C(C#N)=C\c1ccc(N2CCN(C/C=C/c3ccccc3)CC2)cc1 | inactive: 16.2% | 
28 | COc1ccc(CN2C(=O)c3cccnc3C2O)cc1 (stereo not given) |  | inconclusive [inhibitor, full curve]
29 | COc1ccc(NC(=O)c2csc3c2CCCCC3)c(OC)c1 | inactive: -14.5% | 
30 | CN(C)/C=C/c1onc(-c2c(Cl)cccc2Cl)c1C#N |  | inconclusive [inhibitor, partial curve, poor fit]
31 | CCOC(=O)c1c(CSc2ccccc2)n(C)c2cc(Br)c(OCC(O)CNC(CO)(CO)CO)cc12 (stereo not given) |  | inconclusive [inhibitor, partial curve]
32 | Oc1ccc(Br)cc1CNc1cccc2cccnc12 |  | inconclusive [inhibitor, partial curve]
33 | CCN1C(=O)c2cccc3c(N)ccc(c23)C1=O | inactive: 237% | 
34 | CC(NC1=CC(=O)c2cccnc2C1=O)C(O)c1ccccc1 (stereo not given) |  | inconclusive [inhibitor, partial curve]
35 | CCOC(=O)[C@H]1[C@H]2COc3ccc(C)cc3[C@@H]2N2C(=O)c3ccc(C)cc3NC(=O)[C@@]12C |  | inconclusive [inhibitor, partial curve, poor fit]
36 | N#C/C(=C\c1ccc(N2CCOCC2)o1)c1nc2ccccc2[nH]1 | inactive: 49.5% | 
37 | COc1ccccc1N1CCN(C(=O)c2ccc(S(=O)(=O)N3CCCC3)cc2)CC1 | inactive: -15.7% | 
38 | Cc1ccnc(NCc2cccc3ccccc23)c1 |  | inconclusive [inhibitor, partial curve, poor fit]
39 | Cc1ccc2oc(=O)c(/C=C(\O)c3ccco3)nc2c1 | inactive: 42.7% | 
40 | COc1cc(C2CC(=O)Oc3cc(C)c(Cl)c(C)c32)cc(OC)c1OC (stereo not given) |  | inconclusive [inhibitor, partial curve]

Reference: PubChem BioAssay (NCATS)
